Measured values from PubChem BioAssay AID485344 (National Center for Advancing Translational Sciences (NCATS), 2010).
Screen size: about 340,000 compounds; about 6,900 (2%) were called active. Rule as the data show it: active = inhibition above about 30%; inactive = below that, where a call was filed. The list shows a part of the results, in another mix than the full data. The source gives no active or inactive call for entries shown without one.

Target: D(2) dopamine receptor (Homo sapiens) (UniProt P14416)
Assay: HTS Assay for Allosteric Antagonists of the Human D2 Dopamine Receptor: Primary Screen for Antagonists; also: 0% is about no effect
Settings: HEK293 TREx D2 cells, calcium flux, dopamine EC80; at 10 µM; stronger effect = higher value
Summary of the method: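 Calcium mobilization kinetics were recorded at 1 s intervals in tetracycline-induced HEK293 T-REx D2 cells, first for 180 s after compound addition and then 180 s after EC80 dopamine.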

Chain of UniProt P14416 (P14416 whole entry, looked up): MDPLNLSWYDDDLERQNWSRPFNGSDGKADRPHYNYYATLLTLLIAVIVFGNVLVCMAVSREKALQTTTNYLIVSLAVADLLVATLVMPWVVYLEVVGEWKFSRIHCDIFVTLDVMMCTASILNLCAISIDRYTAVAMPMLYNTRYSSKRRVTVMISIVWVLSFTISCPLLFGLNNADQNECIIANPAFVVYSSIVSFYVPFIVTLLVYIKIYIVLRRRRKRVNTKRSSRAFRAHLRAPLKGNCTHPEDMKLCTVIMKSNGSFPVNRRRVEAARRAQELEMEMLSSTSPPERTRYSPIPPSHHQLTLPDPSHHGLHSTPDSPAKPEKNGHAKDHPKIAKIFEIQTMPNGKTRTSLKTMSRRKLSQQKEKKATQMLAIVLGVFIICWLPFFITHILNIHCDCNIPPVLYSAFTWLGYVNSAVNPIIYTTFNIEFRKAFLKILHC

Compared with `CCOC(=O)Cn1c(=O)oc2cc(S(=O)(=O)N3CCN(c4ccc(Cl)cc4)CC3)ccc21`, `Cc1cccc(N2CCN(S(=O)(=O)c3ccc4c(c3)CCCN4C(=O)C3CCC3)CC2)c1C` is lower in inhibition: 12% for the first, -6.57% for the second.

First: Cc1cc(C)cc(NC(=O)C2CCCN(c3nnc(C)c4c(C)n(-c5ccccc5)nc34)C2)c1 (centres undefined)
Second: Cc1nc(N2CCCC2)c2c(C(=O)Nc3cccc(C)c3C)c(C)oc2n1
The inhibition of the first is lower: -17.6% for the first, 6.34% for the second.

First: COc1ccc2nc3sc(C(=O)Nc4ccccc4F)cc3cc2c1
Second: Cc1cn2c(=O)cc(COc3ccc(NC(=O)c4cccc(F)c4)cc3)nc2s1
The inhibition of the first is lower: 4.19% for the first, 15.1% for the second.

Going from `CCN(CC)S(=O)(=O)c1ccc(NC(=O)[C@H](CSCc2ccccc2)N2Cc3ccccc3C2=O)cc1` to `Cn1c(=O)n(C)c2cc(NS(=O)(=O)c3ccccc3)c(NCc3ccccc3)cc21`, the inhibition falls from -8.9% to -9.27%.

Going from `COC(=O)Cn1c(=O)c2c(nc3n2CCN3c2cccc(C)c2)n(C)c1=O` to `CC(=O)Nc1cccc(NC(=O)Cn2cnc3c2c(=O)n(C)c(=O)n3C)c1`, the inhibition rises from -27.1% to -1.57%.

Going from `COc1ccc(C(=O)O)cc1Nc1nc2ccc(C)cc2n2cnnc12` to `CNS(=O)(=O)c1ccc(OC)c(-c2nnc3c4ccccc4c(C)nn23)c1`, the inhibition rises from 6.57% to 14.8%.

Compared with `Cc1cccc(NC(=O)c2sc3nc4n(c(=O)c3c2C)N=C(c2ccc(F)cc2)CS4)c1C`, `O=C(Nc1ccc(C(=O)OCc2cc(=O)n3nc(C4CC4)sc3n2)cc1)c1ccc(F)cc1` is higher in inhibition: -2.68% for the first, -0.669% for the second.

Going from `Cc1ccc(N2C(=O)CS(=O)(=O)C23C(=O)N(Cc2cccc(F)c2)c2ccccc23)cc1Cl` (centres undefined) to `O=C(CSc1ncc2c(n1)-c1ccccc1N(Cc1ccc(F)cc1)S2(=O)=O)c1ccc(Cl)cc1`, the inhibition rises from 13.9% to 18.8%.

Going from `O=C(CSc1nc(-c2ccc(Cl)cc2)nc2c1Cc1ccccc1O2)N1CCCCC1` to `COc1ccccc1-c1noc(-c2ccc(N3CCN(c4ccccc4)CC3)c([N+](=O)[O-])c2)n1`, the inhibition rises from -3.75% to 0.345%.

First: COc1ccc(Cl)cc1NC(=O)c1cc2nc(-c3ccc4c(c3)OCO4)cc(C(F)(F)F)n2n1
Second: COc1cccc(NC(=O)Nc2cc(-c3cn4cccnc4n3)ccc2C)c1
The inhibition of the first is lower: -0.37% for the first, -0.0554% for the second.

First: COc1cccc(OC(=O)CSc2nnc(-c3ccccc3OC)o2)c1
Second: COc1ccc(CCNCc2c(C(=O)O)c(C)n(Cc3ccccc3C)c2C)c(OC)c1
The inhibition of the first is lower: 7.01% for the first, 11.2% for the second.

Going from `O=S(=O)(NCCc1ccccc1)c1ccc(N2CCCCS2(=O)=O)cc1` to `COc1ccccc1CNC(=O)CN1C(=O)CSc2ccc(S(=O)(=O)N3CCCC3)cc21`, the inhibition rises from -16.5% to -11.6%.

Compared with `CCOc1ccc(NS(=O)(=O)c2ccc3[nH]cc(C(=O)NCc4ccco4)c(=O)c3c2)cc1`, `COc1ccc(S(=O)(=O)N(CC(=O)NCc2ccccc2OC)c2ccc(C)cc2)cc1` is lower in inhibition: 4.62% for the first, -24.7% for the second.

Going from `Cc1ccc(NCc2cccn2-c2nnc(N3CCC(C(=O)NCc4ccc(OC(C)C)cc4)CC3)s2)cc1` to `CC(C)Oc1ccc(CNC(=O)C2CCN(C(=O)c3sccc3-n3cccc3)CC2)cc1`, the inhibition falls from 7.14% to -4.82%.

Compared with `COc1ccccc1N1CCN(S(=O)(=O)c2c(C)sc3ncn(CC(=O)N(C)c4ccc(C(C)C)cc4)c(=O)c23)CC1`, `CCOc1ccccc1N(C)C(=O)Cn1cnc2sc(C)c(S(=O)(=O)N3CCC(C)CC3)c2c1=O` is lower in inhibition: -0.442% for the first, -6.89% for the second.

First: CCOCCOC(=O)c1ccc(NC(=O)/C=C/c2ccc(OC)c(OC)c2)cc1
Second: COC(=O)c1cc2oc3ccccc3c2n1CC(=O)Nc1ccc(OC)c(OC)c1OC
The inhibition of the first is lower: -14.4% for the first, 6.97% for the second.

First: Cc1ccc(S(=O)(=O)c2cn(C)c3cc(N4CCN(C)CC4)c(F)cc3c2=O)cc1
Second: COc1ccccc1C(=O)Nc1cc2c(cc1N1CCCCC1)n(C)c(=O)n2C
The inhibition of the first is higher: 12.5% for the first, 5.05% for the second.

Going from `Cc1cccc(C)c1-n1ncc(C(=O)Nc2ccc3c(c2)OCCO3)c1C1CCN(C(=O)OC(C)(C)C)CC1` to `Cc1ccc(Cl)cc1NC(=O)N1CCN(C)c2ncccc21`, the inhibition rises from -2.14% to 13.8%.

Going from `COc1ccc(Nc2c(-c3cc(Br)ccc3O)nc3ncccn23)cc1OC` to `COc1ccc(N2CCN(c3cc(C)nc4nc(-c5ccc(C)cc5)nn34)CC2)cc1`, the inhibition falls from 14.5% to 6.54%.

First: CC1=C(C#N)C(NC(=O)c2cccc(Cl)c2)(C(F)(F)F)C(=O)N1 (centres undefined)
Second: O=C(Nc1cccc(Cl)c1)c1c(NC(=O)C(F)(F)F)sc2c1CCCC2
The inhibition of the first is lower: -7.55% for the first, 1.3% for the second.

Going from `Cc1ccc(-c2noc(CNC(=O)c3ccc(C(C)(C)C)cc3)n2)cc1` to `CCC(Sc1nnc(C)n2c1cc1occc12)C(=O)Nc1ccccc1F` (centres undefined), the inhibition rises from -4.11% to 13.3%.

First: O=C(NCCO)C(=O)Nc1c2c(nn1-c1ccc(F)cc1)CSC2
Second: Cc1nn(CCCC(=O)Nc2ccccc2C(F)(F)F)c(=O)c2c1sc1ccccc12
The inhibition of the first is lower: -2.99% for the first, -1.21% for the second.

Going from `CN(C)CCN(Cc1ccco1)S(=O)(=O)c1cc2c(cc1Cl)NC(=O)CO2` to `O=C(Cn1c(=O)n(Cc2ccco2)c(=O)c2oc3ccccc3c21)Nc1ccc(F)cc1F`, the inhibition rises from -0.485% to 10.5%.

Work on `COc1ccccc1CCNC(=O)CCc1c(C)c2cc3c(C)coc3c(C)c2oc1=O` yielded an inhibition of -9.93%.

With `CCCCN1CCC(COC(=O)c2cc(Cl)c(N)c3c2OCCO3)CC1` the inhibition was active: 64.1%.
For `O=C(O)CCC(=O)NNC(=O)CCC(=O)Nc1ccccc1`, the inhibition was active: 39.6%.
For `COc1ccc(S(=O)(=O)N2CCCCC2)cc1NC(=O)Cc1ccsc1`, the inhibition was active: 30.2%.
For `CCN(Cc1nc2ccccc2c(=O)[nH]1)C(=O)c1cccc(S(=O)(=O)N2CCc3ccccc32)c1`, the inhibition was active: 47.4%.
`CC(C)(C)n1nc2c(c1NC(=O)Cc1ccc(F)cc1)CSC2` was tested, and the inhibition was active: 34.7%.
With `COc1cccc(C(=O)NCC2CCCN(C3CCCCC3)C2)c1OC` (centres undefined) the inhibition was active: 57.2%.
For `Oc1cccc(CN2CCCCC2)c1`, the inhibition was active: 56.4%.
For `O=C(C[n+]1ccc2c(c1)nnn2-c1ccccc1)c1ccc(Cl)cc1`, the inhibition was active: 35.8%.
`Cc1nn(C(=O)c2cc3sccc3[nH]2)c(C)c1C` was tested, and the inhibition was active: 33.6%.
`O=C(CN1C(=O)c2cccnc2Oc2ccc(Cl)cc21)Nc1ccc(F)cc1` was tested, and the inhibition was active: 32.7%.
With `CN(C)c1ccc(NC(=O)c2cccc(N3C(=O)C4C5C=CC(C5)C4C3=O)c2)cc1` (centres undefined) the inhibition was active: 36.1%.
In the case of `O=C(c1ccco1)N1CCN(Cc2cccc(C(F)(F)F)c2)CC1`, the inhibition is reported as active: 77.1%.
